ChEMBL document CHEMBL1157539, “Thousands of chemical starting points for antimalarial lead identification” (Nature, 2010)
In all, about 13,000 compounds were measured (“IFI”: median about 4, highest 2% from about 17 on). The list shows a part of the results.

Experiment: GSK_TCMDC: Inhibition Frequency Index (IFI). The number of non-kinase HTS assays where a compound showed > 50 % inhibition, expressed as a percentage of the number of such assays in which the compound was tested (-0 is zero)
Format: functional

Compound | IFI
Cc1cccc(C(O)CNc2ccnc(Nc3cccc(-c4csc(C)n4)c3)n2)c1 (stereo unspecified) | 13.6%
Cc1ccc(S(=O)(=O)NC2CCN(CCNC(=O)Nc3cc(C)nc4ccccc34)C2)cc1 (stereo unspecified) | 0%
COc1ccc2nc3cc(Cl)ccc3c(NCCN(C)C)c2c1 | 5.88%
O=S(=O)(c1ccc(Cl)cc1Cl)N1CCCCC(c2ccc(C(F)(F)F)cc2)=N1 | 2.19%
O=C(Nc1ccncc1)Nc1ccc2c(c1)CCN(C1CCC1)CC2 | 0.74%
COc1ccc(NC(=O)/C=C/c2ccccc2Cl)cc1OCCN1CCC(NCc2cccnc2)CC1 | 1.4%
Cc1cc(OCCCN2CCN(CCN3CCOCC3)CC2)ccc1NC(=O)COc1ccc(Cl)cc1C(=O)c1cc(Cl)cc(C#N)c1 | 12.7%
COc1cc(OC)c2c(C)cc(NCCCN3CCOCC3)nc2c1 | 0.75%
CCc1cc(-c2onc(C(F)(F)F)c2-c2ccccc2)c(O)cc1OC | 7.56%
COCCNCc1ccc(-c2ccc(CNC3CCN(Cc4ccccc4)CC3)cc2)cc1 | 2.86%
N#Cc1ccc2c(c1)CN(CCC1CCC(NC(=O)c3cc4ccccc4cc3N)CC1)CC2 (stereo unspecified) | 5.11%
CN(C)CCOc1cc(NC(=O)/C=C/c2cccc3ccccc23)ccc1I | 5.11%
COc1ccc(-n2nc(C(=O)NCCC3=CCCCC3)c3ccccc3c2=O)cc1 | 1.03%
c1ccc(C2CCC(N3CCC(N4CCCC4)CC3)CC2)cc1 (stereo unspecified) | 0.82%
CC(C)CCN1CCC(Oc2ccc(NC(=O)c3cccs3)cc2Cl)CC1 | 8.06%
Cc1cccc2nc(-c3cccc(-c4cccc(NC(=O)CCc5c[nH]cn5)c4)c3)[nH]c12 | 1.74%
CN(C(=O)/C=C/c1c(Cl)cccc1Cl)C1CCN(CCCCCNC(=O)/C=C/c2ccc(Cl)c(Cl)c2)CC1 | 12.9%
CC(=O)Nc1cccc(C(=O)Nc2nc3ccc(-c4cc(=O)[nH]c(Nc5ccccc5Cl)n4)cc3[nH]2)c1 | 3.82%
Cn1cccc1C(=O)Nc1cccc(-c2nn3ccccc3c2-c2ccnc(Nc3ccc4c(c3)OCCO4)n2)c1 | 3.13%
CNC(=O)CC(=O)NCCc1ccc(Cl)cc1 | 0%
CC(C)COc1ccc(Cl)cc1Nc1nc(-c2nc3ccccc3[nH]2)cs1 | 6.67%
CN(C)CCOc1cc(NC(=O)Nc2ccc(-c3ccccc3)cc2Cl)ccc1I | 11.1%
O=C(c1cccc(-c2noc(C(F)(F)F)n2)c1)N1CCN(C(=O)c2ccc3cc[nH]c3c2)CC1 | 1.92%

Compound | IFI
Cc1ccc2[nH]cc(/C=C/C(=O)NC3CCC(CCN4CCc5ccc(C#N)cc5CC4)CC3)c2c1 (stereo unspecified) | 6.85%
Cc1ccccc1C1CCN(C2CCC(NC(=O)c3csc(-c4cccc(Cl)c4)n3)CC2)CC1 (stereo unspecified) | 3.57%
Cc1nc(Nc2ccncc2)cc(-c2ccncc2)n1 | -0%
N#Cc1ccccc1S(=O)(=O)N1CCCC(CNC(=O)[C@H](CC2CCCCC2)NC(=O)c2cc3ccccc3s2)C1 (stereo partly specified) | 1.9%
Cc1[nH]c(C)c(-c2ccc(Oc3ccccc3)cc2)c(=O)c1Br | 6.11%
CC1(C)N=C(N)N=C(Nc2ccc(Cl)cc2)N1 | 0.76%
CCOC(=O)c1cc(C(=O)NCCCCN2CCC(c3ccc4c(c3OC)CCCC4)CC2)ccc1-c1ccc(C(F)(F)F)cc1 | 11.7%
c1cncc(-c2cc(N3CCCCC3)nc(-c3ccncc3)n2)c1 | 1.52%
Cc1ccccc1N1CCN(c2ccc(C(=O)NC(C)C)cn2)CC1 | 2.04%
CC(=O)Nc1ccc(S(=O)(=O)NC2=NC(=N)N(OCc3ccc(Cl)c(Cl)c3)C(C)(C)N2)cc1 | 1.49%
COc1cc2c(cc1OC)CN(CCc1ccc(NC(=O)c3cc4cc(Cl)ccc4[nH]3)cc1)CC2 | 5.26%
Cc1cc(N/N=C/c2ccccc2[N+](=O)[O-])c2ccccc2n1 | 2.8%
COc1ccc(O)c(C(=O)c2cc(C#N)c(=O)n(-c3ccc(Oc4ccccc4)cc3)c2)c1 | 3.52%
O=C(Nc1ccc([N+](=O)[O-])cc1O)Nc1ccccc1Oc1ccccc1 | 17%
O=C(NC1CCCCN(Cc2ccccc2O)C1)c1ccc(Cl)c(Cl)c1 (stereo unspecified) | 3.4%
O=C(Nc1ccc(OC2CCN(Cc3ccc(F)cc3)CC2)c(Cl)c1)c1ccoc1 | 1.61%
CCc1nc2nc(C)cc(Nc3ccc(F)c(Cl)c3)n2n1 | -0%
COc1ccc2ncc(F)c([C@H](O)CN3CCC(NCc4ccc5c(c4)NC(=O)CS5)CC3)c2c1 | 2.24%
O=C(/C=C/c1ccc(Cl)c(Cl)c1)NCCCCN1CCC(c2c[nH]c3ccccc23)CC1 | 8.16%
CCCCNC(=N)Nc1ccc(OCCCOc2ccc(NC(=N)NCCCC)cc2)cc1 | 2.99%
CCNc1cc(C(=O)N[C@@H](Cc2ccccc2)[C@H](O)CNC(C)(C)Cc2cccc(Cl)c2)cc(N2CCCCS2(=O)=O)c1 | 3.6%
O=C1CCCN1CCCNCc1ccc(-c2ccc(-c3nc4cc(C(F)(F)F)ccc4[nH]3)s2)cc1 | 6.67%
CC(C)CC(=O)NC1CCN(Cc2c(-c3cccs3)nc3ccccc3c2C(=O)N[C@@H](C)C2CCCCC2)CC1 | 2.86%

Compound | IFI
Nc1nc(O)c2cc(CN(C=O)c3ccc(C(=O)N[C@@H](CCC(=O)O)C(=O)O)cc3)ccc2n1 | 0%
O=C(c1cc(OC(F)(F)F)ccc1O)N1CCN(c2ccccc2)CC1 | -0%
Cc1ccc(NC(=O)c2cn(-c3ccccc3)nc2-c2ccc(F)cc2)cc1[N+](=O)[O-] | 0.65%
N#Cc1cccc(NC(=O)NC2CCN(CCCCCNC(=O)C3CC3c3ccc(Cl)c(Cl)c3)CC2)c1 (stereo unspecified) | 7.55%
C[C@@H](CC1CCCCC1)OC(=O)N(C)[C@H]1CCN(C#N)C1 | 11.2%
Cc1cccc2nc(-c3ccc(-c4cccc(CN5CCCC(O)C5)c4)s3)[nH]c12 (stereo unspecified) | 0%
CCCCNCc1ccc(-c2nc(CN(CCCn3ccnc3)C(=O)NC3CC3c3ccccc3)cs2)cc1 (stereo unspecified) | 5.96%
Cc1cccc2nc(-c3ccc(-c4ccc(CNCc5cnn(-c6ccccc6)n5)cc4)s3)[nH]c12 | 4.92%
Cc1nc(SCC(=O)N2CCCC2=O)c2c(C)c(C)sc2n1 | 1.9%
COc1cccc(Nc2nc(Nc3cccc(C#N)c3)cc(C(F)(F)F)n2)c1 | 4.76%
O=C(Nc1cccc(-c2ccc(-c3nc4cc(F)ccc4[nH]3)cc2)c1)c1ccncc1 | 10.3%
Cc1cc(F)ccc1[C@H]1CNCCN1C(=O)N(C)C(C)(C)c1cc(C(F)(F)F)cc(C(F)(F)F)c1 | 4.72%
N#Cc1ccc(-c2ccc(C(=O)NCCCCN3CCC(c4cn(CCO)c5ccccc45)CC3)cc2)cc1 | 3.64%
CCCCCN1CCCC1CNS(=O)(=O)c1ccc(C(=O)Nc2ccc(C(F)(F)F)cc2)cc1 (stereo unspecified) | 2.41%
O=C(Nc1cccc(CN2CCCN(Cc3ccc(O)cc3)CC2)c1)c1cccc(Cl)c1 | 2.68%
O=C(c1ccco1)c1cn(CCOc2ccccc2)c2ccccc12 | 7.55%
O=C(NC1CC1)c1cnc(N2CCN(Cc3c(F)cccc3Cl)CC2)c(Cl)c1 | 6.12%
COc1ccc(-c2cnc3[nH]cc(-c4ccc(CCC(=O)O)cc4)c3c2)cn1 | 1.98%
c1ccc(-c2cccc(-c3ccccn3)n2)nc1 | 5.59%
Cc1c(C(=O)Nc2cc(Sc3ccc(F)cc3)cc([N+](=O)[O-])c2)sc2ncn(Cc3cccc(F)c3)c(=O)c12 | 0.88%
Cc1cc(NC(c2ccc(Cl)cc2)c2ccc3cccnc3c2O)no1 (stereo unspecified) | 8.22%
Cc1nc(-c2ccccc2)nc(N2CCN(C(=O)c3ccco3)CC2)c1Cc1ccccc1F | 0%
O=S(=O)(NC1CCN(c2ccnc3cc(Cl)ccc23)C1)c1ccc(C(F)(F)F)cc1 (stereo unspecified) | 6.06%

Compound | IFI
O=C(N[C@H](Cc1ccc(Cl)cc1)C(=O)N1CCN(c2ccnc3cc(Cl)ccc23)CC1)[C@H]1Cc2ccccc2CN1 | 4.17%
Oc1ccccc1CN1CCCC(COC(c2ccc(F)cc2)c2ccc(F)cc2)C1 (stereo unspecified) | 7.81%
O=C(/C=C/c1ccc(Cl)c(Cl)c1)NC1CCC(CN2CCC(Cc3cc4ccccc4[nH]3)CC2)CC1 (stereo unspecified) | 10.7%
COc1ccc(CCOc2c(C)nc(N)nc2N)cc1OC | 0.72%
CCCCCCn1c(Sc2ccc(C#N)c([N+](=O)[O-])c2)nnc1-c1ccccc1 | 7.86%
CCCCCCNC(=O)C1Cc2c([nH]c3cc(Cl)ccc23)C2(CCN(CCC)CC2)N1 (stereo unspecified) | 2.86%
COc1ccc(-c2c(-c3ccc(OCc4ccccc4)cc3O)n[nH]c2C(F)(F)F)cc1 | 6.82%
COc1cccc(C(=O)NC(c2ccc(Cl)cc2Cl)c2cc(Cl)c3cccnc3c2O)c1 (stereo unspecified) | 3.92%
O=[N+]([O-])c1ccc(Nc2nc(N/N=C/c3ccc(-c4ccc([N+](=O)[O-])cc4)o3)nc(Nc3ccccc3)n2)cc1 | 0.8%
CCCCCCCC1CCN(C[C@H](O)c2ccnc3ccc(OC)cc23)CC1 | 6.87%
COc1cccc(-c2nn(C)c3sc(C(=O)NCCN(C)Cc4ccccc4)cc23)c1 | 2.11%
CC(C)C(C)(C#N)NC(=O)CSc1nc2ccc([N+](=O)[O-])cc2s1 (stereo unspecified) | 0.71%
O=C(Nc1cccc(-c2ccc(-c3nc4ccccc4[nH]3)cc2)c1)Nc1ccc(F)c(F)c1F | 4.85%
COc1ccc2nccc([C@@H](O)CN3CCC(NC/C=C/c4cccnc4)CC3)c2c1 | -0%
Cc1cc(N(C)C)nc(Nc2ccc(NC(=O)c3cccc(F)c3)cc2)n1 | 2.78%
COC(=O)C1=CNC=C(C(=O)OC)C1c1ccc(Cl)c([N+](=O)[O-])c1 | 5.59%
CN(C)CCNCc1ccc(-c2cccc(-c3nc4ccccc4[nH]3)c2)cc1 | 7.69%
CCNc1cc(C(=O)N[C@@H](Cc2ccccc2)[C@H](O)CNCc2cccc(-n3ccnc3)c2)cc(N2CCCC2=O)c1 | -0%
COc1ccc(C=NNc2ccnc3cc(F)c(C)cc23)c2ccccc12 | 0.75%
CCCNc1ccc(-c2cc(C(N)=O)c3[nH]cc(C4CCN(S(=O)(=O)CC)CC4)c3c2)cn1 | 6.67%
CCCN(c1ccc(O)c(CN2CCCCC2)c1)c1ccc([N+](=O)[O-])cn1 | 0%
c1ccc(CC2=NCCN2)cc1 | 0.71%
